The whole screen tested about 340,000 compounds, of which about 12,000 (3.5%) were called active. The inconclusive results got no clear call from the source; some entries with a clear call stand among them for comparison. The call rests on the fitted dose curve; in most records, active means well fitted inhibition curve with a large enough effect; inconclusive means small, poorly fitted or top-dose-only effect, or another doubt; inactive means no such curve, though single readings can be large or run the other way. Potencies of inconclusive entries are left out as doubtful fits.
assay: qHTS Assay for Inhibitors of Hepatitis C Virus (HCV); conditions: Huh7.5.1 HCVcc-Cre (HCVcc is cell-culture hepatitis C virus) infection, luciferase reporter, 44 h; activity change, negative = inhibition: at 41.8 µM (top of the series) unless noted
Summary of the method: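 Infectious HCV cell culture screen: compound-treated cells (1,000/well, pre-plated 4 h) are infected with HCVcc-Cre at roughly 0.5 moi and grown 44 h. Infection is quantified by luciferase signal after 15 min substrate incubation at room temperature.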
On the % scale 0 is the no-effect control and ±100 the full control effect; potency means the concentration at half of the fitted maximal effect; tags describe the fitted curve by direction and shape.

Row | SMILES | Potency | activity change, negative = inhibition
1 | COc1cccc(/C=C/C(=O)OCC(=O)NCCNC(=O)COC(=O)/C=C/c2cccc(OC)c2)c1 | inactive | 
2 | O=C(c1ccc2ncsc2c1)N1CCN(c2cccc(C(F)(F)F)c2)CC1 | inconclusive [inhibitor, partial curve] | 
3 | CC(C)N1C(=O)S/C(=C/c2ccccc2OCc2ccc(C(=O)O)cc2)C1=O | inactive | 
4 | Cc1ccc(C)c(OCc2nc3ccccc3[nH]2)c1 | inconclusive [inhibitor, single point] | 
5 | Cc1[nH]n(C(N)=S)c(=O)c1N=Nc1cccc(Cl)c1 | inactive | 
6 | CCc1sc(C(=O)NCc2ccco2)cc1C | inactive | 
7 | CC1c2[nH]c3ccccc3c2CCN1S(C)(=O)=O (configuration not stated) | inactive | 
8 | C[C@]12CC[C@H](N)CC1=CCC1C2CC[C@@]2(C)C1CC[C@@H]2O (some centres not stated) | inconclusive [inhibitor, partial curve] | 
9 | Cc1c(CN2CCN(c3cccc(C(F)(F)F)c3)CC2)c(=O)n(-c2ccccc2)n1C | inconclusive [inhibitor, single point] | 
10 | CCOc1cc(C2NN=C(c3ccccc3)S2)ccc1OCc1ccccc1Cl (configuration not stated) | inconclusive [inhibitor, partial curve] | 
11 | CCOC(=O)N1CCC(c2cc(=O)n3[nH]c(C)c(-c4ccc(F)cc4)c3n2)CC1 | inconclusive [inhibitor, single point] | 
12 | CC(C)CC(=O)N/C(N)=N/c1nc2ccccc2s1 | inconclusive [inhibitor, partial curve] | 
13 | COc1cc(NC(=S)Nc2ncccc2C)cc(OC)c1OC | inactive | 
14 | Cc1cc(C)cc(C(=O)NN2CCOCC2)c1 | inactive | 
15 | O=S(=O)(Cc1ccccc1)NC1c2ccccc2Oc2ccccc21 | inconclusive [inhibitor, full curve, poor fit] | 
16 | CCOC(=O)Nc1ccc2nc(Sc3ccc(Cl)cc3)sc2c1 | active: 14.1 µM | 
17 | CC(C)NC(=O)C1(O)c2ccccc2NC(=O)N1c1ccc(Cl)c(Cl)c1 (configuration not stated) | inactive | 
18 | CC(=O)NC(=S)Nc1ccc(NC(=O)c2cccs2)cc1 | inconclusive [inhibitor, single point] | 
19 | CC(=O)c1ccc(Nc2c3c(nc4ccccc24)CCCC3)cc1 | inconclusive [inhibitor, single point] | 
20 | NC(=O)c1cc([N+](=O)[O-])ccc1NCCc1ccccc1 | active: 11.2 µM | 
21 | COc1ccc(CC(=O)N(Cc2cc3cc(OC)ccc3[nH]c2=O)C(C)C)cc1 | inconclusive [inhibitor, partial curve] | 
22 | COCCn1c(C)cc(C(=O)COC(=O)c2ccc3ncsc3c2)c1C | inconclusive [inhibitor, single point] | 
23 | NC(=O)c1c(NC(=O)Cn2nc(C(=O)O)c3ccccc3c2=O)sc2c1CCCC2 | inconclusive [inhibitor, single point] | 
24 | COc1cccc(Oc2cc(NN3CCCCC3)c([N+](=O)[O-])cc2[N+](=O)[O-])c1OC | inactive | 

Row | SMILES | Potency | activity change, negative = inhibition
25 | Cc1ccc(CN2C(=O)CCC2C(=O)NCCc2ccccc2)cc1 (configuration not stated) | inactive | 
26 | Cc1onc(-c2ccccc2)c1C(=O)Nc1nc2c(s1)CCCC2 | inconclusive [inhibitor, single point] | 
27 | CC(NC(=O)c1ccnn1C)C1CCCO1 (configuration not stated) | inactive | 
28 | C[C@]12c3[nH]c4ccc(Cl)cc4c3CCN1C(=O)[C@@H](CC(=O)NCCCn1ccnc1)C[C@@H]2C(=O)N1CCCCC1 | inconclusive [inhibitor, single point] | 
29 | NC(=O)NC[C@@H]1CC[C@@H](Cc2ccc(-c3ccccc3)cc2)O1 | inactive | 
30 | Cc1ccccc1CSCc1nc(N)nc(Nc2ccccc2C)n1 | inactive | 
31 | CC(C)C(=O)Nc1ccccc1C(=O)N/N=C/c1ccc([N+](=O)[O-])cc1 | inconclusive [inhibitor, full curve, poor fit] | 
32 | CCc1ccc2c(CN3CCc4cc(OC)c(OC)cc4C3)cc(=O)oc2c1 | inconclusive [inhibitor, full curve] | 
33 | Cc1ccnc(NC(=O)c2cc3cc(F)ccc3s2)c1 | inconclusive [inhibitor, single point] | 
34 | CCCNC(=O)COc1ccc(-c2nn(C)c(=O)c3ccccc23)cc1 | inconclusive [inhibitor, single point] | 
35 | O=C(NCc1ccco1)c1cnn2c(C(F)(F)F)cc(-c3cccs3)nc12 | inactive | 
36 | O=C(CSc1ncnc2scc(-c3ccccc3)c12)N1CCN(Cc2ccc3c(c2)OCO3)CC1 | inconclusive [inhibitor, partial curve, poor fit] | 
37 | O=C(c1cn(-c2ccccc2)nc1-c1ccc(Cl)s1)N1CCOCC1 | inconclusive [inhibitor, partial curve] | 
38 | CCCCC[C@@H](/C=C/C1C(=O)C=C[C@H]1C/C=C\CCCC(=O)OC)OC(C)=O (some centres not stated) |  | inactive: -9.26% [at 8.37 µM]
39 | CN(C)C(=O)CSc1nnc(-c2cccnc2)n1-c1ccccc1 | inactive | 
40 | CC(NC(=O)Cc1ccc(F)cc1)C(c1cccs1)N1CCN(C)CC1 (configuration not stated) | inconclusive [inhibitor, single point] | 
41 | CCCC(c1nnnn1CCc1ccccc1)N1CCN(C2CCCC2)CC1 (configuration not stated) | inconclusive [inhibitor, single point] | 
42 | CN(Cc1ccccc1)C(=O)c1ccccc1C(=O)OCC(=O)N(Cc1ccccc1)C(C)(C)C | inconclusive [inhibitor, partial curve] | 
43 | COc1ccc(/C=N/n2nnnc2N)c(OC)c1 | inconclusive [inhibitor, single point] | 
44 | C/C(=N\Nc1nc(N2CCOCC2)nc(N2CCOCC2)n1)c1ccc([N+](=O)[O-])cc1 | inconclusive [inhibitor, full curve] | 
45 | Cc1cccc(Nc2nnc(SCC(=O)NCC3CCCO3)s2)c1C (configuration not stated) | inactive | 
46 | Cc1ccc(-c2onc3ccc(C4OCCO4)cc23)cc1 | inconclusive [inhibitor, single point] | 
47 | Cc1ccc2c(c1)c1nc3ccccc3nc1n2C | active: 11.2 µM | 
48 | CC(C)CCn1c(=O)c(C(=O)NCc2ccco2)c(O)c2ccccc21 | inconclusive [inhibitor, full curve] | 

Row | SMILES | Potency | activity change, negative = inhibition
49 | COCCN(C(=O)COC(=O)C1(c2ccccc2)CC1)c1c(N)n(CC(C)C)c(=O)[nH]c1=O |  | inactive: 4.63% [at 8.37 µM]
50 | Cc1cccc(C(=O)Nc2ccc(NC(=O)Cc3ccc(Cl)cc3)cc2)c1 | inactive | 
51 | Nc1nn(-c2ccccc2)c(N)c1N=Nc1ccc2c(c1)OCO2 | inconclusive [inhibitor, full curve] | 
52 | O=C(C1CC1)N1CCC(Oc2cccc(C(=O)N3CCCCC3CCO)c2)CC1 (configuration not stated) | inactive | 
53 | Nc1nnc(-c2ccc([N+](=O)[O-])o2)s1 | inconclusive [inhibitor, single point] | 
54 | COc1ccc(-c2cc(NC(=O)c3cncn3-c3ccccc3)ccc2OC)cc1 | inconclusive [inhibitor, single point] | 
55 | CC(=O)Nc1cccc(/C(C)=N/NC(=O)c2ccc(NS(=O)(=O)c3cccs3)cc2)c1 | inactive | 
56 | Cc1cc2ccccn2c1C(=O)c1ccncc1 | inconclusive [inhibitor, partial curve] | 
57 | Cc1ccc(NC(=O)COc2ccccc2)cc1S(=O)(=O)N1CCCCCC1 | inconclusive [inhibitor, partial curve] | 
58 | CCOC(=O)c1[nH]c(Cc2[nH]c(C(=O)OCC)c(C)c2CCC(=O)OC)c(CCC(=O)OC)c1C | inconclusive [inhibitor, single point] | 
59 | CCOc1ccc(Oc2ccccc2NS(=O)(=O)c2ccc(CCC(=O)O)cc2)cc1 | inactive | 
60 | Nc1c(S(=O)(=O)c2ccccc2)c2nc3ccccc3nc2n1/N=C/c1ccco1 | inconclusive [inhibitor, full curve, poor fit] | 
61 | O=C(NCc1nnc(SCC(=O)N2CCC(Cc3ccccc3)CC2)o1)c1ccccc1F | inconclusive [inhibitor, single point] | 
62 | COc1cc(NC(=O)COC(=O)c2n[nH]c3ccccc23)c(C)cc1[N+](=O)[O-] | inconclusive [inhibitor, partial curve] | 
63 | CCN(CC)c1ccc(/C=N/NC(=O)c2cccc(S(=O)(=O)N3CCOCC3)c2)c(O)c1 | inconclusive [inhibitor, full curve] | 
64 | S=C(NCc1ccco1)Nc1ccc(Cl)cc1 | inactive | 
65 | CCOc1ccc(-c2cc(C)[n+](CCN(CC)CC)c(-c3ccc(OCC)cc3)c2)cc1 | active: 11.2 µM | 
66 | Cc1cc(OCCn2ccnc2)ccc1C(C)C | inactive | 
67 | O=C(CCl)N1CCN(S(=O)(=O)Cc2ccccc2)CC1 | inconclusive [inhibitor, single point] | 
68 | Nc1nc(Nc2ccccc2)nc(NCc2ccco2)c1[N+](=O)[O-] | inconclusive [inhibitor, single point] | 
69 | CCn1c(O)c(C=NC2CCCC(C)C2C)sc1=S (configuration not stated) | inconclusive [inhibitor, single point] | 
70 | CCC(C(=O)N1CCN(c2ncccn2)CC1)c1ccccc1 (configuration not stated) | inactive | 
71 | O=C(Nc1cccc(Cl)c1)c1c(O)c2c(n(Cc3ccco3)c1=O)CCCC2 | inconclusive [inhibitor, partial curve] | 
72 | O=C(NCCN1CCOCC1)NC1(C(F)(F)F)Oc2ccc(Cl)cc2O1 (configuration not stated) | inconclusive [inhibitor, single point] | 

— PubChem BioAssay AID651820 (National Center for Advancing Translational Sciences (NCATS), 2012)
